# Measured values reported in PubChem BioAssay AID463173 (ICCB-Longwood Screening Facility, Harvard Medical School, 2010).
# Hit rate of the full screen: of about 52,000 compounds, about 1,700 (3.3%) were called active. Cut-off read from the data, not from the text of the source: active = survival mostly below about 52% (no sharp cut-off); inactive = mostly above about 56%. Some of the results follow.
# Test system: Wild type
# Test: S. aureus survival, RN4220 and DeltatarO strains – OD600, teichoic acid synthesis inhibitors, primary screen (AID 463173)
# Conditions: S. aureus RN4220 wild type/DeltatarO growth, OD600, 18 h, stronger effect = lower value, screened at 18.75 µg/mL (by protocol)
row,Compound,survival
1,CC(NC(=O)C1CCN(S(=O)(=O)c2ccc(F)cc2)CC1)c1ccccc1 (stereo not given),inactive: 127%
2,CC1CCC(N2CC(=O)N(C3CCCCC3)C(c3ccc(Cl)cc3)C2=O)CC1 (stereo not given),inactive: 71%
3,O=C(Nc1ccc(Br)cc1)c1cc(-c2cccs2)nc2ccccc12,inactive: 94%
4,COc1cccc(C(=O)Nc2nc3ccc(S(=O)(=O)N4CCCC4)cc3s2)c1,inactive: 71%
5,CC(C)c1ccc(NC(=O)CSC2=Nc3ccccc3C3=NC(CC(=O)NCc4cccs4)C(=O)N23)cc1 (stereo not given),inactive: 85%
6,CC(=O)Nc1ccc(NC(=O)CSc2nccn2Cc2ccc3c(c2)OCO3)cc1,inactive: 72%
7,COc1cc(NC(=O)CSc2ncc3c(n2)-c2ccc(Cl)cc2N(Cc2ccccc2)S3(=O)=O)cc(OC)c1,inactive: 65%
8,Cc1ccc(NS(=O)(=O)c2ccc(-c3cnc(C4CC4)o3)cc2)cc1N(C)C,inactive: 127%
9,COc1ccc(-c2cc(C(=O)Oc3ccc(C)cc3)c3ccccc3n2)cc1,active: 4%
10,CC(C)Oc1ccc(C(=O)N2CCC(c3nc4ccccc4o3)CC2)cc1,inactive: 119%
11,C=CCn1c(=O)[nH]c(=O)n(CC=C)c1=O,inactive: 111%
12,CCOc1ccccc1CNC(=O)CCc1c(C)nn(-c2ccc(N3CCCCC3)nn2)c1C,inactive: 70%
13,O=C1CSC2(C(=O)N(Cc3ccccc3F)c3ccccc32)N1c1cccc(C(F)(F)F)c1 (stereo not given),inactive: 85%
14,O=C(Cn1ncc2c3ccccc3n(Cc3ccc(Cl)cc3)c2c1=O)NCCC1=CCCCC1,inactive: 88%
15,CN(C)CCNC(=O)C1CCN(c2ncnc3c2nc2n3CCCCC2)CC1,inactive: 135%
16,Cc1ccc(NC(=O)CSc2nnc(-c3nnn(-c4ccc(F)cc4)c3C)o2)cc1Br,inactive: 70%
17,COc1ccc(CNC(=O)c2cc3cc4ccc(C)cc4nc3o2)cc1,inactive: 88%
18,O=C(Cc1ccccc1)Nc1c(C(=O)c2ccccc2)oc2ccccc12,active: 7%
19,Cc1nc(-c2cccc(F)c2)sc1CCNC(=O)c1c(F)cccc1Cl,inactive: 94%
20,O=C(/C=C/c1ccccc1)C1=C(O)C(=O)N(CCO)C1c1ccc(F)cc1 (stereo not given),inactive: 106%
21,COc1cccc(N2CCN(C(=O)c3cc4c(s3)-c3c(C)cccc3OC4)CC2)c1,inactive: 70%
22,CCCCn1c(=NC(=O)C(C)(C)Oc2ccc(Cl)cc2)c(C(=O)OCC)cc2c(=O)n3ccccc3nc21,inactive: 88%
23,Cc1ccc(NC(=O)CN2C(=O)COc3ccc(S(=O)(=O)N4CCCCCC4)cc32)cc1Cl,inactive: 77%

row,Compound,survival
1,Cc1ccc(OCC(=O)Nc2nonc2-c2ccc(C)c(C)c2)cc1C,inactive: 65%
2,CC1CCCN(CCCNC(=O)c2ccc3c(c2)N(Cc2cccc(Cl)c2)C(=O)c2ccccc2S3(=O)=O)C1 (stereo not given),inactive: 99%
3,CC(C)Cc1nn2c(=O)cc(COC(=O)CNC(=O)c3ccc(C(C)(C)C)cc3)nc2s1,inactive: 153%
4,Cc1ccc(C)c(CNC(=O)c2ccc3c(c2)nc2n3CCOC2)c1,inactive: 63%
5,COc1ccccc1C(=O)Nc1cccc(C(=O)OCc2cc(=O)n3nc(C4CC4)sc3n2)c1,inactive: 76%
6,O=C(Nc1ccc(OC(F)(F)F)cc1)C(Cc1ccccc1)NS(=O)(=O)c1cccc2nsnc12 (stereo not given),inactive: 68%
7,Cc1ccc2c(NC(=O)C3CC3)cccc2n1,inactive: 99%
8,COC(=O)c1ccc(C2c3c(oc4ccc(C)cc4c3=O)C(=O)N2Cc2ccc3c(c2)OCO3)cc1 (stereo not given),inactive: 85%
9,O=C(O)C1CC2C=CC1O2 (stereo not given),inactive: 112%
10,COc1cccc(CNC(=O)Cn2ccc3cc(S(=O)(=O)N4CCCC4)ccc32)c1OC,inactive: 78%
11,Cc1ccc(S(=O)(=O)c2nnn3c2nc(NCc2ccc4c(c2)OCO4)c2sccc23)cc1,inactive: 110%
12,CCOC(=O)c1c(Nc2ccc(O)cc2)nnc(-c2ccccc2)c1-c1ccccc1,inactive: 96%
13,O=C(c1ccccc1)N1CCc2ccccc21,inactive: 106%
14,O=C(O)c1ccccc1C(=O)N1CCC(C(=O)c2ccccc2)CC1,inactive: 104%
15,CCC1Oc2ccc(C)cc2N(CC(=O)NCCc2ccccc2)C1=O (stereo not given),inactive: 59%
16,CCOC(=O)c1cnc2ccc(OC(F)(F)F)cc2c1Nc1ccccc1C(=O)O,inactive: 52%
17,COc1cccc(/C=C/c2nc(C#N)c(N3CCCCCC3)o2)c1,inactive: 76%
18,Cc1ccc(NC(=O)CCCN2C(=O)COc3ccc(C)cc32)c(Cl)c1,inactive: 107%
19,NCCCc1nc2ccccc2[nH]1,inactive: 100%
20,Cc1cc(C)n(CC(=O)Nc2nc(-c3ccccc3)cs2)n1,inactive: 110%
21,CCOC(=O)c1cnn2c(C(F)(F)F)cc(-c3ccc(Br)cc3)nc12,inactive: 74%
22,COc1ccc(-c2cnc(C)o2)cc1S(=O)(=O)Nc1cccc(C(F)(F)F)c1,inactive: 77%
23,O=C(Nc1cccc(C(F)(F)F)c1)C1CCN(S(=O)(=O)c2cccc3nsnc23)CC1,inactive: 88%

row,Compound,survival
1,COC(=O)Cc1c(C)c2ccc3c(c2oc1=O)CN(Cc1ccc(C)cc1)CO3,inactive: 118%
2,Cc1ccccc1-c1noc(CSc2nc(-c3ccc(F)cc3)cc(=O)[nH]2)n1,active: 10%
3,COc1ccc(-n2nnnc2SCC(=O)NCCc2ccccc2)cc1,inactive: 55%
4,Cc1sc2ncn3ncnc3c2c1C,inactive: 98%
5,O=C(Nc1ccc(OCc2cc(=O)n3c4c(sc3n2)CCCC4)cc1)c1ccc(F)cc1,inactive: 85%
6,CCOc1ccc(CCNC(=O)CCn2c(=O)c3cccn3c3ccc(F)cc32)cc1,inactive: 71%
7,O=C(O)CC1=C(c2ccc(F)cc2)CCC1=O,inactive: 108%
8,Cc1ccc(NC(=O)Cn2nc(C(F)(F)F)c3c2CCC3)cc1C,inactive: 81%
9,CC(C)COc1ccc(C(=O)Nc2onc3c2CCCC3)cc1,inactive: 115%
10,NC(=O)C1CCN(c2ncnc3c2cnn3-c2cccc(Cl)c2)CC1,inactive: 79%
11,CCc1ccccc1NS(=O)(=O)c1ccc2[nH]cc(C(=O)NC3CCCC3)c(=O)c2c1,inactive: 42%
12,COc1ccc(-c2noc(-c3ccc(NCc4ccco4)c([N+](=O)[O-])c3)n2)cc1OC,inactive: 63%
13,Cc1cccc(CNC(=O)CCCN2C(=O)c3cccnc3Oc3ccccc32)c1,inactive: 74%
14,CCOc1ccc(C(=O)NCCc2sc(-c3cccc(F)c3)nc2C)cc1OCC,inactive: 71%
15,CCc1ccc(N2CC(c3nc4ccccc4n3Cc3ccccc3C)CC2=O)cc1 (stereo not given),inactive: 53%
16,Cc1ccc(C2=NN(CCC(=O)NCCc3cccc(C)c3)C(=O)CC2)cc1,inactive: 120%
17,COc1ccc(Cn2c(NCC(C)C)nc3c2c(=O)n(C)c(=O)n3C)cc1,inactive: 69%
18,CN(C(=O)CSc1nc2ccc(NC(=O)c3ccccc3)cc2s1)c1ccccc1,inactive: 77%
19,O=C(CSc1oc(-c2cccs2)nc1S(=O)(=O)c1ccccc1)Nc1ccc(F)cc1,inactive: 70%
20,CC(=O)Nc1cccc(-c2nnc(SCC(=O)c3ccc([N+](=O)[O-])cc3)o2)c1,inactive: 123%
21,CCC1CCCCN1C(=O)COc1ccc(F)cc1 (stereo not given),inactive: 113%
22,COc1ccc(OC)c(CNC(=O)c2cnc(N(C)C)nc2)c1,inactive: 74%
23,Cc1ccc(-n2nc(C)c3c(C(=O)Nc4ccc(C)cc4Cl)cc(C)nc32)cc1,inactive: 45%

row,Compound,survival
1,COc1cc(CN(C(=O)c2ccc(C)cc2)c2ccccn2)cc(OC)c1OC,inactive: 83%
2,CCOC(=O)CSc1nc(-c2ccc(OC)cc2)cc(C(F)(F)F)c1C#N,inactive: 85%
3,COc1ccc(C(=O)CC2(O)C(=O)N(CCc3ccccc3)c3ccc(Br)cc32)cc1OC (stereo not given),inactive: 65%
4,CCOC(=O)c1ccc2c(c1)C(=O)N(c1ccccc1OC)C2=O,inactive: 87%
5,COc1cccc(-n2c(=O)c3c4c(sc3n(Cc3ccccc3C#N)c2=O)CCCC4)c1,inactive: 80%
6,Cc1ccccc1-c1noc(-c2ccc(NC3CCCC3)c([N+](=O)[O-])c2)n1,inactive: 97%
7,O=C(Cn1nc2c(cc1=O)CCCC2)NCc1ccccc1,inactive: 79%
8,COc1ccc(-n2nc(C(=O)N3CCN(c4cccc(C)c4)C(C)C3)c3c4ccccc4n(C)c3c2=O)cc1Cl (stereo not given),inactive: 87%
9,O=S(=O)(c1ccc2nc(Nc3ccc(Br)cc3F)ccc2c1)N1CCCC1,inactive: 128%
10,CCOc1ccc(OCC)c(NS(=O)(=O)c2ccc3c(c2)CCCN3C(C)=O)c1,inactive: 89%
11,CCc1nnc(NC(=O)c2nc(SCc3ccc(F)cc3)ncc2Cl)s1,inactive: 58%
12,CCC(c1nnnn1CC1CCCO1)N(Cc1ccc2c(c1)OCO2)Cc1cc2cc(C)cc(C)c2[nH]c1=O (stereo not given),inactive: 107%
13,O=C(OCC1CCCO1)c1ccc2c(c1)N(Cc1c(F)cccc1Cl)C(=O)c1ccccc1S2(=O)=O (stereo not given),inactive: 73%
14,CCCCn1c(C2CC(=O)N(c3ccc(OCC)cc3)C2)nc2ccccc21 (stereo not given),inactive: 84%
15,COCC(C)NC(=O)C1=CC(c2ccc3c(c2)OCO3)=NS(=O)(=O)N1C (stereo not given),inactive: 103%
16,CCOCCn1c(=NC(=O)c2ccc3c(c2)OCCO3)sc2cc(OCC)ccc21,inactive: 92%
17,Cc1cc(C)c(NC(=O)c2ccc3nc(C(C)C)oc3c2)c(C)c1,inactive: 110%
18,O=C(Cn1cc(SCc2ccc(F)cc2)c2ccccc21)N1CCCC1,inactive: 71%
19,CCN(CC)S(=O)(=O)c1ccc2c(c1)c(=O)c(C(=O)N1CCN(c3cc(C)ccc3C)CC1)cn2C,inactive: 82%
20,CCC(C(=O)NC1CCCCC1)n1nc(C)c2sc3ccccc3c2c1=O (stereo not given),inactive: 85%
21,COc1ccc(S(=O)(=O)N2CCC(c3nnnn3-c3ccccc3)CC2)cc1OC,inactive: 88%
